The target in experiment [1] is T1, Myc-tagged full-length wild-type (WT) FOXL2 (human) (UniProt P58012).
T1 sequence: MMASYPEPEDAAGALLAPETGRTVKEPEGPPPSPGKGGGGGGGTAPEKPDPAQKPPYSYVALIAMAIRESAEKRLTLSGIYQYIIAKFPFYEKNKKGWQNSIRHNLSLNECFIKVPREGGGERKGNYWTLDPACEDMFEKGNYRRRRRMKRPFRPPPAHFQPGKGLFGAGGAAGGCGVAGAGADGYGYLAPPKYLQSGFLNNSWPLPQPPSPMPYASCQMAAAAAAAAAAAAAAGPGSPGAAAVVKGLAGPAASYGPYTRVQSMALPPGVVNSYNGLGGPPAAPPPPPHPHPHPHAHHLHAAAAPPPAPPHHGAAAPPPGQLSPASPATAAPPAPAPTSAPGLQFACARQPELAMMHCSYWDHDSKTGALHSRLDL
Description: co-IP; 293T cells transfected with Myc-tagged FOXL2 forms (with Flag-XRCC5 or XRCC6 fragments where indicated); IP with anti-Myc, immunoblot. (In general: Immunoblotting shows a protein as a band on a membrane.)

Experiment [2] addresses FH domain of FOXL2 (aa 46–158) (human) (UniProt P58012). Description: SEC-MALS; Superdex 200 10/300 GL in buffer A (20 mM Tris-HCl pH 8.0, 200 mM NaCl), 0.4 ml/min; each protein alone; both purified. A general note: In gel filtration, larger molecules generally elute earlier.

Five molecules from PMC7181608 can be followed below.

Results are given in words; binding and its absence hold for the method and conditions named. For some assays here: Binding seen in cells or lysates may run through a third protein. Some binding calls cover weakened binding; strength is not graded here. For some assays here: Tags and fused reporters may be left off the sequences shown.

For “XRCC5-N (amino acids 1–240), Flag-tagged (from UniProt P13010 1-240) (domain or fragment)”, the binding entry in experiment [1] was “no binding”.

Regarding “XRCC6-Ku (amino acids 351–500) (from UniProt P12956 351-500) (domain or fragment)”, the binding entry in experiment [1] was “binds”.

For “XRCC5-Ku (amino acids 241–550), Flag-tagged (from UniProt P13010 241-550) (domain or fragment)”, the binding result in experiment [1] is recorded as “binds”.

On to “XRCC5-C (amino acids 551–732), Flag-tagged (from UniProt P13010 551-732) (domain or fragment)”, for which, in experiment [1], the binding result is given as “no binding”.

B1: FH domain of FOXL2 (aa 46–158) (domain or fragment, UniProt P58012 46-158)
chain: PEKPDPAQKPPYSYVALIAMAIRESAEKRLTLSGIYQYIIAKFPFYEKNKKGWQNSIRHNLSLNECFIKVPREGGGERKGNYWTLDPACEDMFEKGNYRRRRRMKRPFRPPPA
As for B1, in experiment [2], the binding result was “no binding”.
